In the RNAGym collection of RNA variant scans (doi:10.7554/elife.90254):
The source gives no read counts; variants with many changes may rest on few reads.

B1: LINE1-mini (parent)
chain: GGCAGAGCUCAACACAGCGUGGCAAAGUGGCUGUGGCUAGACUGCC

Variants of: B1
Assay: self-cleavage, relative activity (ratio to wild type); higher = more cleavage; in vitro, sequencing; the parent is a self-cleaving ribozyme

Row | Variant | self-cleavage
1 | G5U C18U U34G A39U | 0.01
2 | G5U C10U C15G G44U | 0.05
3 | G5U G17U G30A U32G | 0.02
4 | G5U A39G C42G | 0.05
5 | G5U C13U A14G G40U | 0.07
6 | G5U G7U G21A G30U | 1.52
7 | G5U C8U C15A G19U A41C C45A | 0.16
8 | G5U G19U G21U | 0.05
9 | G5U C13G G27A G33A | 0.09
10 | G5U A11G A12U C15A G22A G27A | 0
11 | G5U G7U G30U C31A | 0.4
12 | G5U C42A C46A | 0.04
13 | G5U C10G A25G | 0.02
14 | G5U C13U A16U G33U U34C | 0.05
15 | G5U C8U A12G G21A C23G | 0.03
16 | G5U C23A A25G | 0.02
17 | G5U A16U G35U | 0.22
18 | G5U C18A C31U G40U | 0.01
19 | G5U C10A C15U G17U | 0.09
20 | G5U G7U G17C | 0.11
21 | G5U G7C C45A | 0.22
22 | G5U G7A C18U C31G | 0.05
23 | G5U C13U C31G U32C G40A C46A | 0.11
24 | G5U C10U G19U A26G G33A C46U | 0.05

Row | Variant | self-cleavage
25 | G5U G19A A25C | 0.01
26 | G5U C13A C18A G19C A25C | 0.01
27 | G5U G21U A26U A39G G40U | 0.2
28 | G5U A14U A26U G35A G40C | 0.04
29 | G5U C31A G40U | 0.02
30 | G5U C8G G21C C23A G36C A41G | 0.01
31 | G5U C31G C42U | 0.01
32 | G5U C31G C42G | 0.04
33 | G5U A14G G33U | 0.06
34 | G5U A24U C42G | 0.08
35 | G5U A14U A26G | 0.02
36 | G5U A39C A41U U43A C46A | 0.09
37 | G5U G21C C42U | 0.09
38 | G5U G7C U28G G30U | 0.13
39 | G5U G7U C37U | 0.03
40 | G5U C8A C15U A24C | 0.2
41 | G5U C15U A41G | 0.2
42 | G5U A12U G19U A25C C31A A41U | 0.02
43 | G5U G21U C31A U34G | 0.02
44 | G5U C15G C46A | 0.03
45 | G5U A14G U32A C42A | 0.02
46 | G5U A25G G27C C45U | 0.02
47 | G5U C10U G27A | 0.12
48 | G5U C8G A12G G21A C23A A26G C42A C46G | 0.11

Row | Variant | self-cleavage
49 | G5U A12U C13A G22A A41U | 0.06
50 | G5U A26C C37G G40U | 0.07
51 | G5U C15U G29A G35C C45U | 0.06
52 | G5U G7C A11U G21A U32C | 0.01
53 | G5U A24G G30A G35U | 0.02
54 | G5U C18G G30A C37U | 0.07
55 | G5U A14C G19C C23U A25U | 0.01
56 | G5U A14C A26C | 0.05
57 | G5U G21U C37G C46U | 0.26
58 | G5U G7U C8G C13U | 0.33
59 | G5U G7U C13A U43C | 0.13
60 | G5U G7C C8G G17C | 0.17
61 | G5U C8U A12U G19C G21U C42A | 0.03
62 | G5U C8G C13G A16U G22A | 0.03
63 | G5U G21U G33U C37U | 0.03
64 | G5U A11U A16G G22C G30A G40U | 0.01
65 | G5U C18G G44A | 0.04
66 | G5U C18A G27C G30C | 0.02
67 | G5U C23G C31U U32A | 0.09
68 | G5U C18U G21A U28G G40U C42U U43C | 0.05
69 | G5U C10U G27A G29U G33U U38C | 0.03
70 | G5U A14U A16U C18A G22C A25G U28A | 0.03
71 | G5U C10G G29C | 0.03
72 | G5U C15G G21U G36A | 0.01

Row | Variant | self-cleavage
73 | G5U C15U G29A | 0.05
74 | G5U G19A G36A | 0.16
75 | G5U C10A G21C | 0.04
76 | G5U G7C C10A A24C | 0
77 | G5U G19C C46A | 0.05
78 | G5U C13G A24C | 0.05
79 | G5U G19C U20A A24U | 0
80 | G5U G21A G44A | 0.25
81 | G5U A39G A41G | 0.03
82 | G5U C8U C10U G27C C31G | 0.05
83 | G5U A11U U32G | 0.05
84 | G5U A16U C37U G40C | 0.03
85 | G5U A12G G17U | 0.03
86 | G5U C8G U32G G35U | 0.14
87 | G5U G19U C45A | 0.27
88 | G5U C13U U28G U34G G44U | 0.02
89 | G5U G7U C10G A41C G44A | 0.03
90 | G5U A12U G19C A24U | 0.01
91 | G5U G21C U32C | 0.05
92 | G5U A14C A16G G17C G30U C45A | 0.09
93 | G5U C13A G19U A25G | 0.04
94 | G5U C10U A11G C23U A25G | 0.01
95 | G5U C8U U9A G33A | 0.3
96 | G5U G21U C23A U28C | 0.02

Row | Variant | self-cleavage
97 | G5U A12C C42U | 0.01
98 | G5U A12C C42A | 0
99 | G5U A14U A26C C42U | 0.08
100 | G5U C15G G19A C31G U34A G40U | 0.02
101 | G5U A14C C15A C18A G44A C45U | 0.01
102 | G5U A26G G27A U28G G30A | 0.09
103 | G5U G17C U20C C45A | 0.02
104 | G5U C18G C31G U34G G36C | 0.04
105 | G5U C10G C15U G22C | 0
106 | G5U G17C A24U | 0.05
107 | G5U C13A G21A G33C U34G | 0.07
108 | G5U C13U G17C U38A | 0.06
109 | G5U C37G U38C | 0
110 | G5U C8G U9C | 0.03
111 | G5U C18U G44U | 0.02
112 | G5U C13U A24C G29U | 0.02
113 | G5U G7A A25U | 0.65
114 | G5U G7A G27U | 0.47
115 | G5U A39G C45G | 0.09
116 | G5U C13U G30U C42A | 0.19
117 | G5U C18A C42U | 0.03
118 | G5U C15A A26C | 0.06
119 | G5U C8U C13U G40C | 0.03
120 | G5U G19U G36U C46U | 0.01

Row | Variant | self-cleavage
121 | G5U G7A G17A G19C U43A | 0.04
122 | G5U C31A C45G | 0.03
123 | G5U C13G G17A G22A U34A | 0.03
124 | G5U C8A A14U C31G | 0.18
125 | G5U C8A A39C A41U C46G | 0.31
126 | G5U C8G A24G C46A | 0.21
127 | G5U C15A G29U G35C | 0.04
128 | G5U G19U U28C | 0.3
129 | G5U C10A U20C G40U C42G | 0.01
130 | G5U C8G C37A C42A | 0.06
131 | G5U A24C G30U A41C | 0.01
132 | G5U A41U G44C | 0.03
133 | G5U A11U G19U | 0.02
134 | G5U G7A G29C A41G | 0.1
135 | G5U A12G C15A A24U A25G G40U | 0.02
136 | G5U G7A U9C G21A | 0.05
137 | G5U C13G G17A | 0.02
138 | G5U G17C G19U A26G | 0
139 | G5U C15U A16U | 0.07
140 | G5U A24G U38C C42A G44A | 0.35
141 | G5U G21A G35C | 0.06
142 | G5U G7U G19A G21A G36C U43A | 0.15
143 | G5U G19U G22C U38G | 0.01
144 | G5U C18U G36U A39G | 0

Row | Variant | self-cleavage
145 | G5U C15A G40C | 0
146 | G5U G7U G29C G36A C37G | 0.03
147 | G5U G21C G40U | 0.04
148 | G5U C8U G36A | 0.45
149 | G5U A14U G19A | 0.26
150 | G5U C13A C31G U34C | 0.06
151 | G5U C10G U32G C42A | 0.01
152 | G5U A14C G30U C45A | 0.08
153 | G5U C8A A11G A14U A16G | 0.02
154 | G5U C8A U38A | 0.18
155 | G5U C10A G17A G40U | 0.03
156 | G5U C15U G22A C37A | 0.01
157 | G5U C31U U38G U43G C45U | 0.02
158 | G5U A25U U34A | 0.07
159 | G5U A16G G36U | 0.06
160 | G5U C8U G22A G35U G44U | 0.13
161 | G5U C13A U20C G29U U32G | 0.01
162 | G5U G17C G33U | 0.05
163 | G5U A14G G19U G27U | 0.13
164 | G5U C10U A16U U34G | 0.02
165 | G5U G17C C37A A41C | 0.02
166 | G5U A11U A16G | 0.03
167 | G5U A11U A16C | 0
